Measurements: article PMC12548464
Results are given in words; binding and its absence hold for the method and conditions named. In cells and extracts the contact can be indirect. Some binding calls cover weakened binding; strength is not graded here. Where a sequence is shown, tags or fusion partners need not be part of it.

Tests used:
[1] = biological target: FLAG-Itch (ubiquitin ligase Itch, atrophin-1-interacting protein 4), Q96J02; test: co-IP; Huh-7.5 cells co-transfected with pCAG-FLAG-Itch and pCAG-HA-ADRP, harvested 48 h after transfection; lysis buffer 150 mM NaCl, 10 mM Tris-HCl pH 7.4, 0.1% SDS, 1% sodium deoxycholic acid, 1% Triton X-100; immunoprecipitated with anti-HA PAb (Fig. 4E) or anti-FLAG MAb (Fig. 4F) at 4°C overnight, normal IgG as control; immunoblot; details: remark: other sources report otherwise
[2] = biological target: T1, SPG20-FLAG (SPG20/Spartin, C-terminally FLAG-tagged) (UniProt Q8N0X7); test: co-IP; Huh-7.5 cells co-transfected with pCAG-SPG20-FLAG and pCAG-HA-TIP47, 48 h; immunoprecipitated with anti-FLAG M2 beads (Fig. 7B) or anti-TIP47 antibody (Fig. 7C; Fig. 7D with co-expressed inactive HA-NS3(S139A)/4A); same lysis buffer, 4°C overnight; immunoblot
T1 sequence: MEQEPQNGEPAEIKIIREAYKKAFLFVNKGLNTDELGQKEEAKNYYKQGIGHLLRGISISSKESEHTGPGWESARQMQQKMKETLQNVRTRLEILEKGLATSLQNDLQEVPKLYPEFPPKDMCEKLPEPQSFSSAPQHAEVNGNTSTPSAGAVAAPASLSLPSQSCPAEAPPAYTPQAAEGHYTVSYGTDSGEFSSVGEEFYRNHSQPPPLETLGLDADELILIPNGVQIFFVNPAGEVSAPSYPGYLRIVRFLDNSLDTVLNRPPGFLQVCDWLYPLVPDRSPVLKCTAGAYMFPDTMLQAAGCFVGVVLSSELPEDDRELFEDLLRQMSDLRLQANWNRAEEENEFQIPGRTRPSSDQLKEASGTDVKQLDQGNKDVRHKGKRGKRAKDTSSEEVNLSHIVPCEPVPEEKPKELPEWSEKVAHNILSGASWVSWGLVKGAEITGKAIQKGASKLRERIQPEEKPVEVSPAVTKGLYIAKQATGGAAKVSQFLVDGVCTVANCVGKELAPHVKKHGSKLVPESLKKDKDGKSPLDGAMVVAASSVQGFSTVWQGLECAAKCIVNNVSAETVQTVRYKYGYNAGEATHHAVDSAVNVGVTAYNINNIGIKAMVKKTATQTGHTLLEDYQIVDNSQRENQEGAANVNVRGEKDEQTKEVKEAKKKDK

[3] = biological target: T2, HA-TIP47 (tail-interacting protein of 47 kDa, TIP47/PLIN3) (UniProt O60664); test: as above
T2 sequence: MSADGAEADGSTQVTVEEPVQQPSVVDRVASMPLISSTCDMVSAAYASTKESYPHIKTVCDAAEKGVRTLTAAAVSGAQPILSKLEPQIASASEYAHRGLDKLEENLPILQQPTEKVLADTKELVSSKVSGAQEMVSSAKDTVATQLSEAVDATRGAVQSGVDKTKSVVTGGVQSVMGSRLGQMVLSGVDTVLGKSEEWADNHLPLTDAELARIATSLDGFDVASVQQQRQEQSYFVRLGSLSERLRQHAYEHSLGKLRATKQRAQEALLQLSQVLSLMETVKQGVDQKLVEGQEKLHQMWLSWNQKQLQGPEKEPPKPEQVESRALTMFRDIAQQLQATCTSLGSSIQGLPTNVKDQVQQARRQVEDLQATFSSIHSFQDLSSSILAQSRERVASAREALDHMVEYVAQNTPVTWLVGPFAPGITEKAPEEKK

[4] = biological target: T2, HA-TIP47 (tail-interacting protein of 47 kDa, TIP47/PLIN3); test: condition: only with co-expressed wild-type HA-NS3/4A protease (cleaves SPG20); co-IP; as a2, but with co-expressed wild-type HA-NS3/4A protease, which cleaves SPG20; immunoprecipitated with anti-TIP47 MAb (Fig. 7D); immunoblot
[5] = biological target: T3, endogenous TIP47 (human (endogenous in Huh-7.5)) (UniProt O60664); test: co-IP; Huh-7.5 cells transfected with pCAG-SPG20-FLAG, 48 h; endogenous TIP47 immunoprecipitated with anti-TIP47 rabbit PAb, isotype control rabbit IgG as negative control (Fig. 7E); immunoblot
T3 sequence: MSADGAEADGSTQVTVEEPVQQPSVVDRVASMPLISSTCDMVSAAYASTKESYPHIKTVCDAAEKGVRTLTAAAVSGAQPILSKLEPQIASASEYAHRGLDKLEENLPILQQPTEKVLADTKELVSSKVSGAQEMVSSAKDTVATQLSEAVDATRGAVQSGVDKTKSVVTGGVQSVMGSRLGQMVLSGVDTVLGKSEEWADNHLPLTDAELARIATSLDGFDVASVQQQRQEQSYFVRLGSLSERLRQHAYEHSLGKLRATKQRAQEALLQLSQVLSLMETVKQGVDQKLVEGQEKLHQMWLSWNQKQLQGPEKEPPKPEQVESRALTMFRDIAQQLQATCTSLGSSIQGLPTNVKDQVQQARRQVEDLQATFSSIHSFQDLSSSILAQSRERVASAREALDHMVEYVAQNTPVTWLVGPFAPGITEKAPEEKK

[6] = biological target: T4, TIP47 (construct of Fig. 7F, precipitated with anti-c-Myc MAb) (UniProt O60664); test: co-IP; Huh-7.5 cells transfected with the plasmids as indicated and then infected with HCV J6/JFH1 at an m.o.i. of 2, harvested 48 h after infection; immunoprecipitated with anti-c-Myc MAb (Fig. 7F); immunoblot
T4 sequence: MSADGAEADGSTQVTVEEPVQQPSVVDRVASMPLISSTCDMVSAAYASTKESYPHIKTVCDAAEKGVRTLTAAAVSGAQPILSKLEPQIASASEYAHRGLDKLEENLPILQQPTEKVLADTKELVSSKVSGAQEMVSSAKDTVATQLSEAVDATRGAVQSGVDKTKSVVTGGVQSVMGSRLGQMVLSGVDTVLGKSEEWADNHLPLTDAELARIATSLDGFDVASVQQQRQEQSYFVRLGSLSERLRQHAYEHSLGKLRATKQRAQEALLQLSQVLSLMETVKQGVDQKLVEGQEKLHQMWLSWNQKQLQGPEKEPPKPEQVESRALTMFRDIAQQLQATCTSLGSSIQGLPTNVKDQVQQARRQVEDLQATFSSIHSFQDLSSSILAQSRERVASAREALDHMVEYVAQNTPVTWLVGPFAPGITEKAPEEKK

B1: HA-ADRP (adipophilin, ADRP/PLIN2), Q99541 1-437 (protein)
chain: MASVAVDPQPSVVTRVVNLPLVSSTYDLMSSAYLSTKDQYPYLKSVCEMAENGVKTITSVAMTSALPIIQKLEPQIAVANTYACKGLDRIEERLPILNQPSTQIVANAKGAVTGAKDAVTTTVTGAKDSVASTITGVMDKTKGAVTGSVEKTKSVVSGSINTVLGSRMMQLVSSGVENALTKSELLVEQYLPLTEEELEKEAKKVEGFDLVQKPSYYVRLGSLSTKLHSRAYQQALSRVKEAKQKSQQTISQLHSTVHLIEFARKNVYSANQKIQDAQDKLYLSWVEWKRSIGYDDTDESHCAEHIESRTLAIARNLTQQLQTTCHTLLSNIQGVPQNIQDQAKHMGVMAGDIYSVFRNAASFKEVSDSLLTSSKGQLQKMKESLDDVMDYLVNNTPLNWLVGPFYPQLTESQNAQDQGAEMDKSSQETQRSEHKTH
**Q.** Which binding [1] does the source give for B1 here?
**A.** binds

B2: HA-TIP47 (tail-interacting protein of 47 kDa, TIP47/PLIN3) (protein, UniProt O60664 1-434)
chain: MSADGAEADGSTQVTVEEPVQQPSVVDRVASMPLISSTCDMVSAAYASTKESYPHIKTVCDAAEKGVRTLTAAAVSGAQPILSKLEPQIASASEYAHRGLDKLEENLPILQQPTEKVLADTKELVSSKVSGAQEMVSSAKDTVATQLSEAVDATRGAVQSGVDKTKSVVTGGVQSVMGSRLGQMVLSGVDTVLGKSEEWADNHLPLTDAELARIATSLDGFDVASVQQQRQEQSYFVRLGSLSERLRQHAYEHSLGKLRATKQRAQEALLQLSQVLSLMETVKQGVDQKLVEGQEKLHQMWLSWNQKQLQGPEKEPPKPEQVESRALTMFRDIAQQLQATCTSLGSSIQGLPTNVKDQVQQARRQVEDLQATFSSIHSFQDLSSSILAQSRERVASAREALDHMVEYVAQNTPVTWLVGPFAPGITEKAPEEKK
**Q.** For B2, which binding [2] is on record?
**A.** binds

B3: SPG20-FLAG (SPG20/Spartin, C-terminally FLAG-tagged) (protein, UniProt Q8N0X7 1-666)
chain: MEQEPQNGEPAEIKIIREAYKKAFLFVNKGLNTDELGQKEEAKNYYKQGIGHLLRGISISSKESEHTGPGWESARQMQQKMKETLQNVRTRLEILEKGLATSLQNDLQEVPKLYPEFPPKDMCEKLPEPQSFSSAPQHAEVNGNTSTPSAGAVAAPASLSLPSQSCPAEAPPAYTPQAAEGHYTVSYGTDSGEFSSVGEEFYRNHSQPPPLETLGLDADELILIPNGVQIFFVNPAGEVSAPSYPGYLRIVRFLDNSLDTVLNRPPGFLQVCDWLYPLVPDRSPVLKCTAGAYMFPDTMLQAAGCFVGVVLSSELPEDDRELFEDLLRQMSDLRLQANWNRAEEENEFQIPGRTRPSSDQLKEASGTDVKQLDQGNKDVRHKGKRGKRAKDTSSEEVNLSHIVPCEPVPEEKPKELPEWSEKVAHNILSGASWVSWGLVKGAEITGKAIQKGASKLRERIQPEEKPVEVSPAVTKGLYIAKQATGGAAKVSQFLVDGVCTVANCVGKELAPHVKKHGSKLVPESLKKDKDGKSPLDGAMVVAASSVQGFSTVWQGLECAAKCIVNNVSAETVQTVRYKYGYNAGEATHHAVDSAVNVGVTAYNINNIGIKAMVKKTATQTGHTLLEDYQIVDNSQRENQEGAANVNVRGEKDEQTKEVKEAKKKDK
**Q.** What does the source list for B3?
**A.** binding [3]: binds; binding [4]: no binding; binding [5]: binds

B4: SPG20 C504A-FLAG (protein, UniProt Q8N0X7 1-666)
chain: MEQEPQNGEPAEIKIIREAYKKAFLFVNKGLNTDELGQKEEAKNYYKQGIGHLLRGISISSKESEHTGPGWESARQMQQKMKETLQNVRTRLEILEKGLATSLQNDLQEVPKLYPEFPPKDMCEKLPEPQSFSSAPQHAEVNGNTSTPSAGAVAAPASLSLPSQSCPAEAPPAYTPQAAEGHYTVSYGTDSGEFSSVGEEFYRNHSQPPPLETLGLDADELILIPNGVQIFFVNPAGEVSAPSYPGYLRIVRFLDNSLDTVLNRPPGFLQVCDWLYPLVPDRSPVLKCTAGAYMFPDTMLQAAGCFVGVVLSSELPEDDRELFEDLLRQMSDLRLQANWNRAEEENEFQIPGRTRPSSDQLKEASGTDVKQLDQGNKDVRHKGKRGKRAKDTSSEEVNLSHIVPCEPVPEEKPKELPEWSEKVAHNILSGASWVSWGLVKGAEITGKAIQKGASKLRERIQPEEKPVEVSPAVTKGLYIAKQATGGAAKVSQFLVDGVCTVANAVGKELAPHVKKHGSKLVPESLKKDKDGKSPLDGAMVVAASSVQGFSTVWQGLECAAKCIVNNVSAETVQTVRYKYGYNAGEATHHAVDSAVNVGVTAYNINNIGIKAMVKKTATQTGHTLLEDYQIVDNSQRENQEGAANVNVRGEKDEQTKEVKEAKKKDK
**Q.** B4 was tested. Which binding [6] did it give?
**A.** binds
